Results reported in the supplement of paper PMC12632987.
The full ranking holds about 2,300 sequences; the median of “median log2 fold change of GCK-ALFA target abundance (FLAG IP / Myc IP barcode read proportion)” is about 0.095, and the lowest 2% start at about -0.47. This is one part of the list.

B1: LC3A_28_747 (protein)
chain: SEIEKQLKEVLEEARRAAERGEPVVLTIKVSGTATQEDIEKVMKALEEIAEILKDVPDVAIIIDISGTLKQEHINKLLDKAEEIEKKYPNVTVIFALDEE
B2: LC3A_3_1586 (protein)
chain: LEEKKKEMLQALKEAGHSEETIKAVEELLKKLEEKGYEEAAKEFIELVLENIDLSSELLLEVALELLELVEAGKLSEEEIIEKARELFRVARSEQEIIEL
B3: LC3A_free_2_2170 (protein)
chain: ATYRVEVDVLGPAAGVAALFDVLAAHGLTVTVEYEDGTVVEGTAAEHAARMRELAAKGEEVLVRITFETDRATAEAVSAELDAVAEATGVAALIDIEEIG
B4: LC3A_free_8_2461 (protein)
chain: DNQKLVDTAVEKLEELEEELVKKAKELGLSELDILDLELEIGSAIAEVISNVDKSKEEIIKTTKEELEDIIKYAKELGEEVAELAKKKSEEILKELEKLK
B5: LC3A_28_694 (protein)
chain: SAIDAQLAAAEAAVAAAVAAGEDALVEFTVSGTATAADIDRLLAAVRAMAERMAAVGKLYVVVDLDGDVSAAHQQRLADGLDALEAEYPHLSAVIALEED
B6: LC3A_78_2081 (protein)
chain: MKVAIIAHTESGKEIAEELEKKLTDADEVIIGPISELEKLVEKHKDADEILVDIVADTLDEVDAAEEKVRKILSDYNHSSIYEYDEETGKWIGHIIATKK
B7: LC3A_28_855 (protein)
chain: SETRKSIEEAREELEKAREAKEPAVITVTVTSDVTEEEVEEVIELIKEAAEASKEVPDLTLIIDFEGEIDPEHLNRITDAADEAIKKNPKLNVIFALDEE
B8: LC3A_28_1095 (protein)
chain: SALEKQLAAALAEVEAAAARGEEVVVTINVDDTATEEDIELLKKTLERMAEIAKTLPALSVIINLSGEKAQEKATILSDHADELEKRYPNLTVIIALDED

Biological target: MAP1LC3A, Q9H492
Assay: median log2 fold change of GCK-ALFA target abundance (FLAG IP / Myc IP barcode read proportion) (log2 ratio); each designed protein is fused to an ALFA-tag nanobody in HEK293 cells to bring the named protein to FLAG-tagged glucokinase (GCK); Myc marks an untargeted standard; higher = target protein stabilised (more abundant)
Conditions: target protein: 3xFLAG-MCP-GCK-ALFA reporter; HEK293 landing pad (RPLP)
Outline: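 Sequencing of reverse-transcribed, amplified circular RNA barcodes from anti-FLAG and anti-Myc immunoprecipitates provided the readout for an ALFA-nanobody-fused binder library recombined into HEK293 landing-pad cells. Those cells were induced with 2 μg mL^−1 doxycycline, transfected with a plasmid expressing a FLAG-tagged target and a Myc-tagged standard, and lysed after 48 h. Target abundance is the per-binder median log2 ratio of FLAG to Myc barcode read proportions. Only barcodes at a proportion of ≥10^−7 in both replicates and binders with ≥3 barcodes per replicate were kept, with a 10^−6 pseudocount added before the two replicates were pooled.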

Binder | median log2 fold change
B1 | -0.23
B2 | 0.148
B3 | -0.0528
B4 | -0.224
B5 | -0.415
B6 | 0.263
B7 | 0.127
B8 | 0.208
